The source gives no read counts; variants with many changes may rest on few reads.
B1: CPEB3 Ribozyme (parent)
chain: UAACAGGGGGCCACAGCAGAAGCGUUCACGUCGCAGCCCCUGUCAGAUUCUGGUGAAUCUGCGAAUUCUGCUGUAUAUCUC

Variants of: B1
Assay: self-cleavage, relative activity (ratio to wild type); higher = more cleavage; in vitro, sequencing
Outline: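 Libraries of CPEB3 self-cleaving ribozyme mutants came from rounds of error-prone PCR and carried barcodes, which DNA sequencing matched to variants. In vitro transcription used T7 RNA polymerase at 37°C for 5 hours, with a further 15 min in DNase I before EDTA stopped the reaction; the ribozymes cleaved during both steps. The RNA was reverse transcribed with template switching and sequenced on Illumina. Relative activity is the cleaved/total read fraction of a variant divided by that of the unmutated ribozyme, averaged over three batches with at least 5 reads.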

Row | Variant | self-cleavage
1 | UAACAGGGGGCCACAGCGGAAGCGUUCACGCCGCAGCCCCUGUCAGAUUCUGGUGAAUCUGCGAAAUCUGCUGUAUAUCUC | 0.07
2 | UAACAGGGGGCCACAGCGGAAGCGUUCACGGCGCGGCCCCUGUCAGAUUCUGGCGAAUCUGCGAACUCUGCUGUAAGUCUC | 0.5
3 | UAACAGGGGGCCACAGCGGAAGCGUUCACGGCGCAGCCCCUGUCAGAUUCUGAUGAAUCUGCGAAUUCUGCUGUAUAUCUC | 0.56
4 | UAACAGGGGGCCACAGCGGAAGCGUUCACGGCGCAGCCCCUGUCAGAUUCUGGUGAAUCAGCGAAUUCUGCUGUAUAUCUC | 0.42
5 | UAACAGGGGGCCACAGCGGAAGCGUUCACGUCGCAGCCCCAGUCAGAUUCUGGUGGAUCUGCGAAUUCUGCUGUAUAUCCC | 0.28
6 | UAACAGGGGGCCACAGCGGAAGCGUUCACGUCGCAGCCCCAGUCAGAUUCUGGUGAAUCUGCGGAUUCUGCUGUAUUUCUC | 0.06
7 | UAACAGGGGGCCACAGCGGAAGCGUUCACGUCGCAGCCCCAGUAAGAUUCUGGUGAAUCUGCGAAUUCUGCUGUAUAUCUC | 0.26
8 | UAACAGGGGGCCACAGCGGAAGCGUUCACGUCGCAGCCCCAGUCAGAUACUGGCGAGUCUGCGGAUUCUGCUGUAUACCUC | 0.15
9 | UAACAGGGGGCCACAGCGGAAGCGUUCACGUCGCAGCCCCAGUCAGAUUCAGGUGAAUCUGCGAAUUCUGCUGUAUAUCCC | 0.34
10 | UAACAGGGGGCCACAGCGGAAGCGUUCACGUCGCAGCCCCCGUCUGUUCCUGGUGAGUCUGCGAAUUCUGCUGAAUAUCUC | 0.02
11 | UAACAGGGGGCCACAGCGGAAGCGUUCACGUCGCAGCCCCCGUCAGAUUCUGGUGGAUCUGCGAAUUCUGCUGUAUAUCUC | 0.54
12 | UAACAGGGGGCCACAGCGGAAGCGUUCACGUCGCAGCCCCCGUCAGAUUCUGGUGUAUCUGCGAAUUCUGCUGUAUAUCUC | 0.2
13 | UAACAGGGGGCCACAGCGGAAGCGUUCACGUCGCAGCCCCCGUCAGAUUCUGGUGAAUCUGCGAAUUAUGCUGUAUAUCUC | 0.19
14 | UAACAGGGGGCCACAGCGGAAGCGUUCACGUCGCAGCCCCCGUCAGAUUCUGAUGAAUCUGCAAAUUCUGCUGUAUAUCUC | 0.42
15 | UAACAGGGGGCCACAGCGGAAGCGUUCACGUCGCAGCCCCCGACUGAUUCUGGUGAAUCUGCGAAUUCUGCUGUAUAUCUC | 0.19
16 | UAACAGGGGGCCACAGCGGAAGCGUUCACGUCGCAGCCCCCGUCAGAUUCAGGUGAAUCUGCGAAUCCUGCUGUAUAUCUC | 0.47
17 | UAACAGGGGGCCACAGCGGAAGCGUUCACGUCGCAGCCCCCGUCAGAUUCCGGUGAAUCUGCGAAUUCUGCUAUAUAUCUC | 1.15

Row | Variant | self-cleavage
18 | UAACAGGGGGCCACAGCGGAAGCGUUCACGUCGCAGCCCCCGUCAGAUUCCGGUGAAUCUGCGAAUUCUGCCGUAUAUCUC | 0.2
19 | UAACAGGGGGCCACAGCGGAAGCGUUCACGUCGCAGCCCCCGUCAGAUUCGGGUGAAUCUGCGAAUUCUGCUGUAUAUCCC | 0.74
20 | UAACAGGGGGCCACAGCGGAAGCGUUCACGUCGCAGCCCCCGUCAGAUUCUGGCGAAUCUGCGAAUUCUGCUGUAUAUCUC | 0.58
21 | UAACAGGGGGCCACAGCGGAAGCGUUCACGUCGCAGCCCCCGUCAGAUUCUGGUGAAUCAGCGAAUUCUGCUGUAUAUCUC | 0.13
22 | UAACAGGGGGCCACAGCGGAAGCGUUCACGUCGCAGCCCCCGUCAGAUUCUGGUGAAUCGGCGAAUUCUGCUGUAUAUCUC | 0.32
23 | UAACAGGGGGCCACAGCGGAAGCGUUCACGUCGCAGCCCCCGUCAGAUUCUGGUGAAUCUGCGAACUCUGCUGUAUACCUC | 0.37
24 | UAACAGGGGGCCACAGCGGAAGCGUUCACGUCGCAGCCCCCGUCAGAUUCUGGUGAAUCUGCGAAUCCUGCUGUAUAUCUC | 0.16
25 | UAACAGGGGGCCACAGCGGAAGCGUUCACGUCGCAGCCCCGGUCAGAUUCUGGUGAGUCUGCGAAUUCUGCCGUAUAUCUC | 0.07
26 | UAACAGGGGGCCACAGCGGAAGCGUUCACGUCGCAGCCCCUGACAGGUUCUGGUGAAUCUGCGAAUUCUGCCGUAUAUCUC | 0.62
27 | UAACAGGGGGCCACAGCGGAAGCGUUCACGUCGCAGCCCCUGACAGAUUCUGGUGCAUCUGCGAACUCUGCUGUAUAUCUC | 0.23
28 | UAACAGGGGGCCACAGCGGAAGCGUUCACGUCGCAGCCCCUGACAGAUUCUGGUGGGUCAGCGAAUUCUGCUGUAUAUCUC | 0.17
29 | UAACAGGGGGCCACAGCGGAAGCGUUCACGUCGCAGCCCCUGACAGAUUCUGGUGAAUCUGCGAGUUCUGCUGUAUAUCCC | 0.44
30 | UAACAGGGGGCCACAGCGGAAGCGUUCACGUCGCAGCCCCUGACAGAUUCUGGUGAAUCUGGGAAUUCUGCUGUAUAUCUC | 0.18
31 | UAACAGGGGGCCACAGCGGAAGCGUUCACGUCGCAGCCCCUGACAGAUUCCGGUGAAUCUGCGAAUUCUGGUGUAUAUCUC | 0.38
32 | UAACAGGGGGCCACAGCGGAAGCGUUCACGUCGCAGCCCCUGACAGAUUCGGGUGAAUCUGCGAAUACUGCUGUAUAUCUC | 0.36
33 | UAACAGGGGGCCACAGCGGAAGCGUUCACGUCGCAGCCCCUGACAGAUUCUGGUGAAUCUGCGAACUCUGCUGUAUUUCAC | 0.4
34 | UAACAGGGGGCCACAGCGGAAGCGUUCACGUCGCAGCCCCUGACAGAUUCUGGUGAAUCUGCGAAUUCUGCUGUAAAUCUC | 0.95
